Measurements taken from the BET-seq Pho4 binding data (Le et al. 2018).
The other results are listed elsewhere or left out. These are noisy estimates, calculated here from bound and input reads.

Target: T1, Pho4 (S. cerevisiae) (UniProt P07270)
T1 sequence: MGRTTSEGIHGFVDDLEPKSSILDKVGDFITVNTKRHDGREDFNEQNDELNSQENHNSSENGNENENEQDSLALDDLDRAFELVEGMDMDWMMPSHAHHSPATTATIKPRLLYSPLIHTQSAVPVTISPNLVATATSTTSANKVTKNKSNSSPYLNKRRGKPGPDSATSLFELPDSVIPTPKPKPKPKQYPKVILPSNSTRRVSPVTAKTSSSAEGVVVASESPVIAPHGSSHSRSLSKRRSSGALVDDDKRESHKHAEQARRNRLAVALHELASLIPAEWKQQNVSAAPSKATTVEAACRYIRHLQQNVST
Assay: relative binding free energy (BET-seq); higher = weaker binding
Details: reference: library average

Sequence	relative binding free energy [kcal/mol]
TGAGTCACGTGACGGG	0.19
TGAGGCACGTGATTCT	0.01
CGACGCACGTGGTGGT	-0.08
TGTTTCACGTGGCGCT	0.15
TGGTCCACGTGTTGAT	0.02
GCTGTCACGTGTCGAG	0.38
TCGTACACGTGGGGGA	-0.05
CGTGGCACGTGCAGTT	-0.02
TTTTCCACGTGTTGGG	0.13
GGGGTCACGTGGCAGA	0.2
GGGTCCACGTGTGTGT	0.09
CTGAGCACGTGGAGGT	-0.01
TGATACACGTGGTTTA	-0.08
TCGGACACGTGGTGGG	-0.08
AGAGTCACGTGAAAGG	0.32
AGAATCACGTGTTTGG	0.16
GGTCTCACGTGCTGTG	0.18
AGGATCACGTGTTAAG	0.26
TGAATCACGTGTAAGT	0.34
TGCGGCACGTGTGTAG	-0.09
AATGTCACGTGTGAAA	0.23
GTGCGCACGTGTAAGG	-0.14
TTGGCCACGTGGGTGC	-0.16
CGATGCACGTGGGGGT	-0.36
CAGGGCACGTGTTGAA	-0.11
TCTGTCACGTGGGTCA	-0.04

Sequence	relative binding free energy [kcal/mol]
GGGGTCACGTGATACG	0.19
CATTGCACGTGTATGG	-0.01
TTTTGCACGTGCGGTG	-0.01
AAGGTCACGTGGGCAA	-0.04
TAGATCACGTGTAATG	0.23
GGATACACGTGTTGGG	0.04
ATTTTCACGTGTGGCA	0.23
CGGTTCACGTGTCGAG	0.24
CTTGGCACGTGGGGTT	-0.18
TGGGACACGTGGGTTT	-0.03
AGTTTCACGTGGACTG	0.34
AATTTCACGTGGGAGT	0.24
GTTATCACGTGAGTGG	0.4
TTATCCACGTGGTTGG	-0.09
AAGTTCACGTGAGGTG	0.28
TAGATCACGTGATGAT	0.18
TGTGACACGTGGTCTT	-0.16
TTCGTCACGTGGTCTT	-0.11
AAAGTCACGTGGTTTT	0.07
GAGGGCACGTGGATTG	-0.08
TTTTGCACGTGTCTAA	-0.03
CTGGGCACGTGCGAGG	-0.24
ATGTGCACGTGGGCGC	-0.16
GATGGCACGTGATTCT	0.23
ATTGCCACGTGTTTTG	0.02
TGGTCCACGTGTTGAA	0.18

Sequence	relative binding free energy [kcal/mol]
AATGACACGTGGTAAT	-0.07
AAGTGCACGTGTTCAT	-0.02
AGTTGCACGTGGTTTC	0.01
TCTGTCACGTGAGGTA	0.17
TATACCACGTGTTGTG	-0.19
TAGGGCACGTGAGTGT	0.12
ACGATCACGTGTATTG	0.34
GAGTTCACGTGGTTTT	0.38
GTAAGCACGTGGAATT	0.03
TGAGACACGTGAGGTA	0.34
GAGATCACGTGTTCGT	0.29
TACGTCACGTGAGTGT	0.12
CGTTACACGTGTCGTT	0.12
AGGATCACGTGGAGGT	0.11
GTCGGCACGTGGCGTT	-0.06
TGTTACACGTGAGGAA	0.37
TGTTTCACGTGGCTTG	0.32
GATTGCACGTGATCGG	0.08
TTCTGCACGTGCATGG	0.01
GGAAGCACGTGGTGTA	-0.11
AATGTCACGTGTTGTA	0.02
TGATTCACGTGGGCAA	0.22
TAGGTCACGTGGATCA	0.13
TCTTACACGTGGAGTT	0.22
CCGGACACGTGTGGGT	0.13
CGTGGCACGTGGCGAG	-0.21

Sequence	relative binding free energy [kcal/mol]
TGGCTCACGTGATGTA	0.12
TAGTGCACGTGGCTGA	-0.05
TTGTGCACGTGTGTCA	0.07
CTAGTCACGTGTCGTG	-0.01
TTTCGCACGTGTGAGG	0.2
TTAACCACGTGTTTAG	0.03
GGGGCCACGTGCGCGG	-0.21
TCTTTCACGTGCGTTT	0.12
AGCGCCACGTGGGGGT	-0.25
GATGTCACGTGATGCT	0.19
GGACTCACGTGTTGTG	0.2
AGGGCCACGTGATGGC	0.12
GTTTTCACGTGATTTG	0.37
GATGTCACGTGAGGGC	0.41
ATAGACACGTGGGGAA	-0.09
AGGAGCACGTGGGTTA	-0.18
TAATACACGTGGTTGC	-0.03
AGCTGCACGTGTGAGC	0.19
GAGGGCACGTGTTTAG	0.02
GCTTTCACGTGGTCGA	0.23
ATTGGCACGTGGAGTA	-0.24
TTTTTCACGTGGATAA	0.3
TTCCTCACGTGGGGTT	0.05
TGGATCACGTGTTTTA	0.38
GTTAGCACGTGCGTGC	-0.12
AAGGACACGTGGTAGC	0.15

Sequence	relative binding free energy [kcal/mol]
GACAGCACGTGTTTGG	0.02
TGGGCCACGTGTGAGT	-0.11
AATAGCACGTGTATAG	-0.1
GAATGCACGTGTGATG	0.07
CACGGCACGTGGGAGG	-0.1
AGTAACACGTGTAGGT	0.04
TTATTCACGTGCTATA	0.17
AAGTCCACGTGGGAGG	0.08
ATAGGCACGTGTTGTA	-0.24
TTTCACACGTGTGGCG	0.24
ATATTCACGTGATATT	0.26
TGAGCCACGTGGGAGG	-0.11
GCATGCACGTGTGCGG	-0.02
GGTTGCACGTGGGGGG	-0.07
TATGTCACGTGGGGTT	-0.02
ACTTACACGTGGTGGT	-0.1
AGTGACACGTGGTTAT	0.01
TTGGGCACGTGGACCT	-0.12
GTTAACACGTGAGGGT	0.21
TTGATCACGTGGGCGA	-0.03
CATTTCACGTGATTTT	0.36
TGCTACACGTGATTTT	0.37
TGGTTCACGTGTTATA	0.25
ATGCACACGTGGAGTA	0.16
GTTATCACGTGGGATG	0.13
TTGGGCACGTGAAGCT	0.15

Sequence	relative binding free energy [kcal/mol]
GGGGACACGTGGTAAA	-0.03
CGCGGCACGTGTTTTG	0.05
TTGTTCACGTGTTGGT	0.31
AGACTCACGTGGTGTG	-0.16
GAATTCACGTGTTGCG	0.3
CAGTGCACGTGTGGGG	-0.05
TTGATCACGTGATCTA	0.25
GGTTGCACGTGCGGTT	0.14
TGTGTCACGTGGTGGG	0.1
TGGTCCACGTGGAGGT	0.1
AAAAGCACGTGTGTGG	-0.11
GTTTGCACGTGTCGGA	-0.02
AGTTACACGTGCGTAT	-0.04
TTGATCACGTGTTTAG	0.07
ACTCGCACGTGGGTGG	-0.29
ATAGGCACGTGCGGAG	-0.2
GGAGTCACGTGTAGCA	0.25
CCTTTCACGTGGTTGG	0.28
TAATTCACGTGGAGTT	0.27
AGAATCACGTGAGAGG	0.41
TAAGTCACGTGAGGGG	0.28
CAGCGCACGTGTGGTG	0.01
TGGATCACGTGCGCGA	0.21
TCAAGCACGTGGGTGA	-0.21
TATCGCACGTGGGGGA	-0.16
CTTTTCACGTGGCTAT	0.11

Sequence	relative binding free energy [kcal/mol]
CTATGCACGTGTGTTG	-0.14
GCTAGCACGTGGGGAG	-0.34
TTGTACACGTGGGTAA	0
GATTGCACGTGGATCG	0.19
CTGTGCACGTGCGAGG	-0.02
GGGATCACGTGTCTAG	0.33
TTATGCACGTGGGTTC	-0.21
AGGTGCACGTGGCGTC	-0.12
TTGGGCACGTGTAACG	0.05
TATAGCACGTGTCTGT	-0.06
TTCGGCACGTGCTTAT	-0.07
TGACGCACGTGGGGTA	-0.28
TGATCCACGTGAGTGT	0.24
TTGCGCACGTGAGGGA	-0.03
ATTTTCACGTGTTTAC	0.19
GGAAGCACGTGAAGAT	0.35
CAAGTCACGTGGTATT	-0.03
GTGGACACGTGCGGTA	0.09
AGGCACACGTGAGGTG	0.28
AGTCTCACGTGGTCGA	0.38
TTGCTCACGTGTGGAT	0.46
TAATTCACGTGGTTTG	0.14
CTGAGCACGTGGTAGG	-0.21
AAGTGCACGTGTATCG	0.03
TGGCTCACGTGAGTTT	0.33
TAGTACACGTGGAATT	0.21

Sequence	relative binding free energy [kcal/mol]
TGTGACACGTGTAACG	0.16
GTCGGCACGTGGAAGG	-0.05
TATTGCACGTGGCAGG	-0.1
AGGAGCACGTGTGTGT	-0.05
AGGGACACGTGATGTT	0.1
ACGTGCACGTGTGTCT	-0.07
AATGTCACGTGACGGT	0.16
TGTTGCACGTGGTGTT	-0.07
GATTTCACGTGCAGTG	0.43
GGGAACACGTGGGGCG	-0.1
TATGCCACGTGTTTTT	0.09
CGGGTCACGTGGTTAT	0.08
TGTATCACGTGCTTGA	-0.03
GGGTTCACGTGTTATG	0.43
GGTTCCACGTGTTAGA	0.2
TGTATCACGTGAAGTC	0.28
TATGGCACGTGTGAGG	0.09
CTGTGCACGTGGGGTG	-0.2
GTTAGCACGTGAACGG	0.24
TGTCGCACGTGGCTGT	-0.11
CGTTTCACGTGTTGAT	0.18
GTTAGCACGTGTCTGT	-0.04
ATGTACACGTGGTATA	0.04
GGGAGCACGTGTGTCA	-0.08
TTGGTCACGTGACGAG	0.19
TTTTACACGTGAGATA	0.22

Sequence	relative binding free energy [kcal/mol]
AAGGTCACGTGTTTGG	0.14
AGTGTCACGTGATGCG	0.22
TTGTACACGTGGGCGA	-0.14
TTGGTCACGTGGGTCT	0.01
TTTAACACGTGGTCAT	-0.05
TATGTCACGTGGGGCC	-0.03
GGACGCACGTGAGGTG	0.24
TAATGCACGTGTTGCA	-0.05
TTAGACACGTGGGGGA	-0.2
TTAAGCACGTGGTTGT	-0.03
TTGTGCACGTGTACAG	-0.05
TGGAGCACGTGATAGT	0.09
AGAGGCACGTGTTTGG	-0.1
CACGGCACGTGTAGGG	-0.06
AGGAGCACGTGCGGCG	-0.06
GGTTCCACGTGGAAAG	0.2
GTAGTCACGTGAGAGC	0.31
TTTAGCACGTGTACAT	-0.02
ATCTTCACGTGTCGGG	0.31
ATTTACACGTGGTTGA	0.05
GTTGGCACGTGAGAGA	0.09
TCGATCACGTGGTGGA	0.12
